Out of some 220,000 compounds screened, about 16,000 (7.3%) were called active. The inconclusive results got no clear call from the source; some entries with a clear call stand among them for comparison. Calls follow the shape of the dose curve; as a rule, active = well fitted inhibition curve with a large enough effect (not every such curve was filed as active); inconclusive = small, poorly fitted or top-dose-only effect, or another doubt; inactive = no such curve, though single readings can be large or run the other way. Where the call is inconclusive, the potency comes from a doubtful curve fit.
target: Aldehyde dehydrogenase 1A1 (Homo sapiens) (UniProt P00352); assay: qHTS Assay for Inhibitors of Aldehyde Dehydrogenase 1 (ALDH1A1); settings: Purified ALDH1A1, NADH fluorescence, propionaldehyde substrate; series mostly up to 75.3 µM; activity, negative = inhibition: at the top concentration;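 as to activity, negative = inhibition: plate controls were no enzyme wells and a reference inhibitor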
Chain of UniProt P00352 (P00352 whole entry, looked up): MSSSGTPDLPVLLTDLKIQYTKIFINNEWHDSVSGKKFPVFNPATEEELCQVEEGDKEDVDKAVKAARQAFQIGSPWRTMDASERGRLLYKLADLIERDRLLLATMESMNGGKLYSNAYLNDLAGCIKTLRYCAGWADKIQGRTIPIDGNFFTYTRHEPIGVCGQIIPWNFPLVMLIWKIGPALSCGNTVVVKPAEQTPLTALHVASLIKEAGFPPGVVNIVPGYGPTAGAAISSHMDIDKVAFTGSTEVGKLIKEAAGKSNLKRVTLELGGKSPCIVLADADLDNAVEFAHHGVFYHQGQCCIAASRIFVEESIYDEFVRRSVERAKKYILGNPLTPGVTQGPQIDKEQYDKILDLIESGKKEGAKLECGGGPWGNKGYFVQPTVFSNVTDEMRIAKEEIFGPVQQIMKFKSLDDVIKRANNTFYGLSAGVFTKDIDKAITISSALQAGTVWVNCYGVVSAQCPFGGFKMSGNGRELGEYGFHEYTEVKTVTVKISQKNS
Potency is read from the fitted curve at half-maximal effect; tags tell the direction and shape of the fitted curve.

Potency, active:
COc1cccc(OCc2nnc(SCC(=O)N3c4ccccc4Sc4ccc(Cl)cc43)o2)c1 10 µM, COc1ccc(Cc2nnc(N)s2)cc1OC 28.2 µM, CC1=C(C)C(c2ccccc2)NC(=S)N1 (stereo not drawn) 12.6 µM, CC(C)CC(=O)N1CCN(c2ccc([N+](=O)[O-])cc2Cl)CC1 31.6 µM, COC(=O)c1sc(NC(=O)c2cc(-c3ccccc3)nc3ccccc23)c(C#N)c1C 14.1 µM, O=CC1=C(N2CCOCC2)/C(=C/c2ccc(Cl)cc2)CC1 11.2 µM, Cc1ccc(S(=O)(=O)NCCN=C(CN2CCCC2)NS(=O)(=O)c2ccc(C)cc2)cc1 4.47 µM, CC(C1CC2CCC1C2)n1c(-c2ccco2)n[nH]c1=S (stereo not drawn) 14.1 µM, COC(=O)c1ccc(N2CCOCC2)c(NC(=O)Nc2cccc(OC)c2)c1 25.1 µM, O=C(NCc1ccccc1)C1CCN(S(=O)(=O)c2cc([N+](=O)[O-])ccc2Cl)CC1 25.1 µM, Cc1ccc(NC(=O)C(C)Sc2nc(=O)cc(N)n2-c2ccccc2)cc1 (stereo not drawn) 11.2 µM

Potency, inconclusive:
COC(=O)[C@@H]1C[C@@]1(C)[C@@H](NC(=O)OCc1ccccc1)c1ccccc1 7.08 µM [inhibitor, partial curve], COc1cccc(N2CCN(C3C4CC5CC(C4)CC3C5)CC2)c1 (stereo not drawn) 39.8 µM [inhibitor, single point], O=C1CCCC2=C1C1c3ccccc3C(=O)N1c1ccc(C(=O)c3ccccc3)cc1N2 (stereo not drawn) 0.891 µM [inhibitor, full curve, poor fit], OCCN(CCO)c1ccc2ccccc2c1 10 µM [inhibitor, partial curve], COc1ccccc1/C=C/C(=O)OCC(=O)NCc1ccco1 25.1 µM [inhibitor, partial curve], O=C1C=C(NCc2ccc3c(c2)OCO3)CC(c2ccccc2)C1 (stereo not drawn) 39.8 µM [inhibitor, single point], CCCc1[nH][nH]c(=O)c1C(c1ccc(Br)cc1)C(C#N)C#N (stereo not drawn) 20 µM [inhibitor, partial curve], Cc1c(C(=O)NCCSCc2c(Cl)cccc2Cl)cccc1[N+](=O)[O-] 20 µM [inhibitor, partial curve], CCOC(=O)COn1c(=O)c(-c2cccs2)[n+]([O-])c2ccccc21 35.5 µM [inhibitor, single point], CC(=O)Oc1ccc(C(=O)Nc2ccc3c(c2)C(=O)N(CCC(=O)O)C3=O)cc1 28.2 µM [inhibitor, partial curve], Cc1ccc(C(=O)OC2=CC(=O)CC(C)(C)C2)cc1 17.8 µM [inhibitor, partial curve], CCc1cc(-c2n[nH]c(C)c2-c2nc3ccccc3s2)c(O)cc1OCC(=O)NN 10 µM [inhibitor, partial curve], O=C(NCCc1c[nH]c2ccccc12)c1cccc(S(=O)(=O)Nc2ccccc2Cl)c1 20 µM [inhibitor, partial curve], Cc1cccc(C)c1NC(=O)C1CCCN1C(=O)OC(C)(C)C (stereo not drawn) 39.8 µM [inhibitor, single point], CC(=O)Nc1ccc(S(=O)(=O)Nc2nc3ccccc3nc2Nc2ccc(S(N)(=O)=O)cc2)cc1 20 µM [inhibitor, partial curve], O=c1c2[nH]c3cccc(Cl)c3c2ncn1Cc1ccco1 1.26 µM [inhibitor, single point], Cc1cc(NC(=O)c2cccc(S(=O)(=O)N(C)C)c2)n(-c2ccccn2)n1 20 µM [inhibitor, partial curve], CN(Cc1ccc(F)cc1)C(=O)COc1ccccc1-c1ccccc1 35.5 µM [inhibitor, single point], Nc1nc(CSCc2ccccc2)nc(N2CCOCC2)n1 39.8 µM [inhibitor, single point], CCOC(=O)c1sc2nc(N3CCOCC3)c3c(c2c1N)CCC3 28.2 µM [inhibitor, partial curve], Cn1c(-c2ccc(F)cc2)cnc1NCc1ccccc1 35.5 µM [inhibitor, single point], CC(C)c1ccc(CNc2ccc(N3CCOCC3)cc2)cc1 3.16 µM [inhibitor, single point], Cc1cccc(Nc2nc3c(c(=O)n(C)c(=O)n3C)n2Cc2ccccc2)c1 8.91 µM [inhibitor, single point], Cc1ccc(NC(=O)O/N=C/c2c(C)nn(C(C)(C)C)c2C)cc1Cl 14.1 µM [inhibitor, partial curve], S=C(c1ccc(-c2ccc(Cl)cc2)o1)N1CCCCC1 31.6 µM [inhibitor, single point]

activity, negative = inhibition, inactive:
O=C(COC(=O)C1CCC(=O)N1)Nc1ccccc1Br (stereo not drawn) 2.75%, Cc1nn(C)c(C)c1S(=O)(=O)N1CCC(C(=O)NC2CCCc3ccccc32)CC1 (stereo not drawn) 8.1%, Cc1ccc(-c2nnc(-n3nc(C)cc3C)c3ccccc23)cc1 8.53%, Cn1c(-c2ccc(F)cc2)cnc1NCc1cc2c(cc1[N+](=O)[O-])OCO2 3.11%, Cc1ccccc1-c1nc(-c2cccnc2)no1 4.01%, CCc1ccc(NC(=O)CCS(=O)(=O)c2cccc3nsnc23)cc1 -11.4%, COc1ccc(F)c(-c2nc(CN3CCC(c4ccccc4)CC3)c(C)o2)c1 -4.43%, Cc1ccc(N2C(=O)CC(Cc3cc(C)cc(C)c3)C2=O)cc1 (stereo not drawn) -2.75%, O=C(Nc1nc2ccc(Oc3ccccc3)cc2s1)c1cc([N+](=O)[O-])ccc1N1CCOCC1 0.977%, CN1CCN(S(=O)(=O)c2ccc(N3CCc4ccccc4C3)nc2)CC1 -5.58%, Cn1nccc1NC(=O)CC(CC(=O)O)c1ccccc1 (stereo not drawn) 5.23%, CC(C)(C)c1nc[nH]c(=O)c1Br 4.12%

— PubChem BioAssay AID1030 (National Center for Advancing Translational Sciences (NCATS), 2008)
